These are yes or no findings as the source states them, for the method shown. In cells and extracts the contact can be indirect. Some results given as binding are weak or reduced against the parent protein; the word gives no strength.
Assays:
[1] = target: ICP27 of wild type HSV-1 strain KOS, in infected cells (HSV-1 strain KOS) (UniProt P10238); experiment: co-IP; RSF cells transfected with GFP control, GFP-Hsc70 or GFP-Hsc70K71M, 24 h later infected with WT HSV-1 for 8 h; immunoprecipitation with anti-ICP27 antibody, blot probed with anti-GFP and anti-Hsc70 antibodies
GST-Hsc70 (1-540) = GST-Hsc70 (1-540) (UniProt P19120); experiment: pull-down; 10 µl Glutathione-Sepharose-bound GST-Hsc70 proteins with 10 µl in vitro translation reaction of 35S-methionine labeled ICP27, room temperature, beads washed four times, SDS-PAGE; only the target purified
[2] = target: ICP27 of wild type HSV-1 strain KOS, in infected cells (HSV-1 strain KOS) (UniProt P10238); experiment: co-IP; HeLa cells infected with WT or ICP27 mutant HSV-1 (moi 10), nuclear extracts at 6 h; immunoprecipitation with anti-ICP27 monoclonal antibody, Western blot with anti-Hsc70 antibody
GST-Hsc70 (373-540) = GST-Hsc70 (373-540) (UniProt P19120); experiment: pull-down; 10 µl Glutathione-Sepharose-bound GST-Hsc70 proteins with 10 µl in vitro translation reaction of 35S-methionine labeled ICP27, room temperature, beads washed four times, SDS-PAGE; only the target purified
GST-Hsc70 (373-650) = GST-Hsc70 (373-650) (UniProt P19120); experiment: as above
GST-Hsc70 (540-650) = GST-Hsc70 (540-650) (UniProt P19120); experiment: as above

The chains behind the UniProt entries cited, without tags or fusion partners. Where a name states a change or a piece, a line headed by the entry shows the natural chain unless it says otherwise. Residues count along the entry.
GST-Hsc70 (1-540) (P19120, residues 1-540): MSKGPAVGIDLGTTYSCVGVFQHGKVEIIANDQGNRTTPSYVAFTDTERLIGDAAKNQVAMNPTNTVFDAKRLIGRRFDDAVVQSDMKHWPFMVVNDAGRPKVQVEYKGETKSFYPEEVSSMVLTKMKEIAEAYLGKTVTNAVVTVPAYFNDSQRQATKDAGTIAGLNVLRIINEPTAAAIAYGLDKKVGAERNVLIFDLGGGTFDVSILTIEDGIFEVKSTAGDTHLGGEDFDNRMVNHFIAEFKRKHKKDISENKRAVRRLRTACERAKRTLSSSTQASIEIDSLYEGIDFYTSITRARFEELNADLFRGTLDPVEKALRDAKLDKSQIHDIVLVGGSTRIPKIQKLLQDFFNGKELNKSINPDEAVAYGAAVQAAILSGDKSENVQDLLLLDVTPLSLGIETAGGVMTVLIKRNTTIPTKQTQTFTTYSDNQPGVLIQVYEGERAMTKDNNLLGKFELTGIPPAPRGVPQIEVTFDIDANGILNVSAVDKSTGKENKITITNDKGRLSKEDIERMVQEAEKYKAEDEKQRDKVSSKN
GST-Hsc70 (373-650) (P19120, residues 373-650): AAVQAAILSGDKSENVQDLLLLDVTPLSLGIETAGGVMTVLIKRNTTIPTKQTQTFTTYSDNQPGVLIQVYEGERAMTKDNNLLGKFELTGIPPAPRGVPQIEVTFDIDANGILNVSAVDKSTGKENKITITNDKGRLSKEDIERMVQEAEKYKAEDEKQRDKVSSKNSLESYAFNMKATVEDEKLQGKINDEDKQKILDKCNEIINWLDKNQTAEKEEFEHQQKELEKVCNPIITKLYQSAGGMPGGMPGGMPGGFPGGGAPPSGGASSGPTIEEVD
GST-Hsc70 (373-540) (P19120, residues 373-540): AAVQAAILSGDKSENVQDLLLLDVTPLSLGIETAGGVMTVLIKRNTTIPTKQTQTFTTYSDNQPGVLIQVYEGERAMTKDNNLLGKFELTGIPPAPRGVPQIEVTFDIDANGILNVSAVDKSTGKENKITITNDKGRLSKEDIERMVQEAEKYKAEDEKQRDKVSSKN
GST-Hsc70 (540-650) (P19120, residues 540-650): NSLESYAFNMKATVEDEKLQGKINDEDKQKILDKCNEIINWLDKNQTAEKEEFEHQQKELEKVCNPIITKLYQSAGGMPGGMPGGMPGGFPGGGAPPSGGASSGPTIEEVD
UniProt P11142: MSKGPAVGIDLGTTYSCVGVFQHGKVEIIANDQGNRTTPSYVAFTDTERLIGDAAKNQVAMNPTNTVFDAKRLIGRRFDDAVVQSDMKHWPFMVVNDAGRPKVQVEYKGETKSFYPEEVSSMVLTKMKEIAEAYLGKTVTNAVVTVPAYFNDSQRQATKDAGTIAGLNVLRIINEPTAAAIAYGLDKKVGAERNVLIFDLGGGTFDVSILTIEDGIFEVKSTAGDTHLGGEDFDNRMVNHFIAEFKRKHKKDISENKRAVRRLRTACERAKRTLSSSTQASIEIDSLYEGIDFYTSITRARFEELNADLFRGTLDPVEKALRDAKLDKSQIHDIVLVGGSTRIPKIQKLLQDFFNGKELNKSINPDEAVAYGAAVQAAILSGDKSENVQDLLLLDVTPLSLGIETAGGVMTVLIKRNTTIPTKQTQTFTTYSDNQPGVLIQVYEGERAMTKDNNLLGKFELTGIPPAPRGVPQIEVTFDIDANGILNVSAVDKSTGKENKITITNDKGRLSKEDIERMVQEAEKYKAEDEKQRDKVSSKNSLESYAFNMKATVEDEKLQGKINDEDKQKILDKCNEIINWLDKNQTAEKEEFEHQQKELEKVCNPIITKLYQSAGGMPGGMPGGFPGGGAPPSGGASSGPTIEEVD

Substance	binding [1]	binding (GST-Hsc70 (1-540))	also measured
GFP-tagged Hsc70 (from UniProt P11142 1-646)	binds		
GFP-tagged Hsc70 K71M (from UniProt P11142 1-646)	no binding		
ICP27 deletion mutant ΔC, in vitro translated (from UniProt P10238 1-449) (domain or fragment)		no binding	
endogenous Hsc70 of HeLa cells (from UniProt P11142 1-646)			binding [2]: binds
wild type ICP27, in vitro translated (from UniProt P10238 1-512)		binds	binding (GST-Hsc70 (373-540)): no binding; binding (GST-Hsc70 (373-650)): no binding; binding (GST-Hsc70 (540-650)): no binding

Source: publication PMC2200795
